The values below come from PubChem BioAssay AID1745853 (National Center for Advancing Translational Sciences (NCATS), 2022).

Test in all cases: Primary Screen for Target Class Profiling of Small Molecule Inhibitors of Methyltransferases
For experiment [1], the target named is Glycine N-methyltransferase (Homo sapiens) (UniProt Q14749). The note with it: purified enzyme, MTase-Glo SAH luminescence; measured here: GNMT inhibition; at 40 µM; stronger effect = lower value. The method in brief:
(§1)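 Each enzyme was reacted with SAM and its substrate, with compounds tested once at 40 uM; SAH formed was read by MTase-Glo luminescence.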

Experiment [2] addresses Guanidinoacetate N-methyltransferase (Homo sapiens) (UniProt Q14353). The note with it: purified enzyme, MTase-Glo SAH luminescence; measured here: GAMT inhibition; at 40 µM; stronger effect = lower value. The procedure, abridged:
as §1

In experiment [3] the target is Histamine N-methyltransferase (Homo sapiens) (UniProt P50135). The note with it: purified enzyme, MTase-Glo SAH luminescence; measured here: HNMT inhibition; at 40 µM; stronger effect = lower value. The procedure, abridged:
as §1

For experiment [4], the target named is Nicotinamide N-methyltransferase (Homo sapiens) (UniProt P40261). The note with it: purified enzyme, MTase-Glo SAH luminescence; measured here: NNMT inhibition; at 40 µM; stronger effect = lower value. The method in brief: as §1
Experiment [5] deals with Phenylethanolamine N-methyltransferase (Homo sapiens) (UniProt P11086). The note with it: purified enzyme, MTase-Glo SAH luminescence; measured here: PNMT inhibition; at 40 µM; stronger effect = lower value. The method in brief: as §1

Structures are written as SMILES. Some of the results follow. The main result of the screen is listed elsewhere. These columns were measured beside it and carry no call.
% is scaled to controls: 0 for no effect and ±100 for the full control effect.

On to `CC1=CC(=O)CC(C)(C)C1/C=C/C(C)O[C@@H]1O[C@H](CO)[C@@H](O)[C@H](O)[C@H]1O[C@@H]1OC[C@](O)(CO)[C@H]1O` (stereo not given in full), for which the activity change, negative = inhibition in experiment [1] is 4.55%; in experiment [2], 6.31%; in experiment [3], 11.7%; in experiment [4], -6.66%; in experiment [5] it was 8.16%.

Turning to `COCCNC(=O)C1(C)Cn2nc(-c3ccccc3)cc2C(=O)N1Cc1ccc(C)cc1` (stereo not given), the activity change, negative = inhibition in experiment [1] is -3.97%; in experiment [2] it was 3.15%; in experiment [3] it was 3.93%; in experiment [4] it was 8.21%; in experiment [5], -2.46%.

For `CC(=O)O[C@H]1[C@H](O[C@H]2CC[C@]34C[C@]35CC[C@]3(C)[C@@H]([C@@]6(C)CC[C@@H](C(C)(C)O)O6)[C@@H](O)C[C@@]3(C)[C@@H]5C[C@H](O[C@@H]3O[C@H](CO)[C@@H](O)[C@H](O)[C@H]3O)[C@H]4C2(C)C)OC[C@@H](OC(C)=O)[C@@H]1O`, the activity change, negative = inhibition was -7.63% in experiment [1]; 13.4% in experiment [2]; 13% in experiment [3]; 8.38% in experiment [4]; 9.93% in experiment [5].

Consider `CC(C)(C)c1ccc(NC(=O)N2CCN(c3ncccc3Cl)CC2)cc1`, for which the activity change, negative = inhibition in experiment [1] was -2.85%; in experiment [2], -0.889%; in experiment [3] it was 11.8%; in experiment [4], -18.4%; in experiment [5], -9.21%.

For `COCC(=O)N[C@H]1C[C@@H](CO)N(Cc2scnc2C)C1`, the activity change, negative = inhibition in experiment [1] is -7.57%; in experiment [2], -9.64%; in experiment [3], -4.44%; in experiment [4], -16.3%; in experiment [5] it was -11.1%.

Regarding `COCCOc1cc(-c2noc([C@@H]3CCCN3C3CCN(C(C)=O)CC3)n2)ccn1`, the activity change, negative = inhibition is -1.61% in experiment [1]; -3.12% in experiment [2]; -1.03% in experiment [3]; -10.8% in experiment [4]; -1.64% in experiment [5].

`CC(C)n1cc(-c2cc(C(=O)N(C)Cc3cccnc3)c3cc(F)ccc3n2)cn1`: the activity change, negative = inhibition was -4.39% in experiment [1]; -3.47% in experiment [2]; -0.395% in experiment [3]; -4.73% in experiment [4]; -3.62% in experiment [5].

Take `O=C1NCc2nc3ccccc3c(=O)n2C1Cc1c[nH]c2ccccc12` (stereo not given): the activity change, negative = inhibition was 2.25% in experiment [1]; 7.29% in experiment [2]; 5.04% in experiment [3]; -9.15% in experiment [4]; 2.56% in experiment [5].

Regarding `CCc1c(Cl)c(O)c(Cl)c(O)c1C(=O)O[C@H]1[C@H](O)[C@H](OC)[C@H](OC/C2=C\C=C\C[C@H](O)/C(C)=C\[C@H](CC)[C@@H](O[C@@H]3OC(C)(C)[C@@H](OC(=O)C(C)C)[C@H](O)[C@@H]3O)/C(C)=C/C(C)=C/C[C@@H]([C@@H](C)O)OC2=O)O[C@@H]1C`, the activity change, negative = inhibition in experiment [1] was -5.04%; in experiment [2], 16.9%; in experiment [3] it was -69.8%; in experiment [4], -16.1%; in experiment [5], -2.87%.

For the compound `O=C(c1cc(-c2cccnc2)c2nncn2n1)N1CCOCC1`, the activity change, negative = inhibition in experiment [1] is -3.47%; in experiment [2], -1.36%; in experiment [3] it was -0.788%; in experiment [4], -4.34%; in experiment [5] it was -5.34%.

`COCc1nc(CCNC(=O)NCCc2ccccc2)no1`: the activity change, negative = inhibition in experiment [1] is 0.431%; in experiment [2], -1.63%; in experiment [3], 1.78%; in experiment [4], -1.27%; in experiment [5], -10.8%.

On to `O=C(O)CO[C@@H]1COCC[C@H]1NC(=O)c1cc2c(s1)CCCCC2`, for which the activity change, negative = inhibition was -3.5% in experiment [1]; -5.97% in experiment [2]; -3.34% in experiment [3]; -6.91% in experiment [4]; 0.317% in experiment [5].

For `COCCOCc1nc(C2CCCN2S(=O)(=O)Cc2ccccc2)no1` (stereo not given), the activity change, negative = inhibition is 0.832% in experiment [1]; 1.86% in experiment [2]; 2.57% in experiment [3]; -1.41% in experiment [4]; 6.96% in experiment [5].

Turning to `O=C(c1ccon1)N1CCN(Cc2cnn3cccnc23)CC(O)C1` (stereo not given), the activity change, negative = inhibition is -4.3% in experiment [1]; -3.62% in experiment [2]; -1.65% in experiment [3]; -3.17% in experiment [4]; 0.317% in experiment [5].
